Source: PubChem BioAssay (Tox21)
“And” between values parts separate entries of the source, which are not always exact repeats. Identical values can stand only once. The inconclusive results got no clear call from the source; some entries with a clear call stand among them for comparison. For part of these data: Potencies of inconclusive entries are doubtful fits and often do not repeat. More than one record can exist for a structure, and the calls need not agree. The source made the active and inactive calls. Unless noted, calls come from the whole dose curve; as a rule, active = well fitted curve in the direction sought with a large enough effect in the repeat runs; inconclusive = weak or mixed curves; inactive = no such curve, though single readings can be large; an effect the other way counts as inactive or inconclusive.

Key:
[1] = qHTS assay to identify small molecule agonists of H2AX - cell viability counter screen (AID 1224847; calls by dose curve; note: potency is the fitted concentration of half-maximal effect; nearly all actives have a fitted effect of over 30% in size)
Method in brief: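 We seed wild-type CHO-K1 cells overnight, treat them for 3 hr at 37C with compounds in 15-concentration series, and quantify remaining viability by CellTiter-Glo luminescence.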

[2] = qHTS RealTime-Glo MT Cell Viability Assay in HEK293 cells - 16 hour (AID 1224872); note: potency is the fitted concentration of half-maximal effect; nearly all actives have a fitted effect of over 50% in size
Method in brief: (§1)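 HEK293 cells were seeded at 600 cells/well together with NanoLuc luciferase and cell-permeant prosubstrate, preincubated 5 h at 37 C/5% CO2, then given compound in DMSO by pintool. Luminescence from viable-cell prosubstrate reduction was read repeatedly over 40 h.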

[3] = qHTS RealTime-Glo MT Cell Viability Assay in HepG2 cells - 8 hour (AID 1224873); note: nearly all actives have a fitted effect of over 55% in size; note: potency is the fitted concentration of half-maximal effect
Method in brief: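 HepG2 cells (600/well) mixed with RealTime-Glo MT reagent, settled 5 h at 37 C/5% CO2 before compound addition. Nonlytic NanoLuc luminescence from viable-cell prosubstrate reduction read repeatedly during 40 h treatment at 37 C.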

[4] = qHTS RealTime-Glo MT Cell Viability Assay in HEK293 cells - 40 hour (AID 1224874); settings: RealTime-Glo luminescence; max response: stronger effect = lower value; note: potency is the fitted concentration of half-maximal effect; nearly all actives have a fitted effect of over 50% in size
Method in brief: (§2)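 Real-time viability in HEK293: signal arises when living cells convert a prosubstrate for NanoLuc in the medium, so luminescence tracks viable cell number. Compound (23 nL, DMSO) added 5 h post-seeding; kinetic reads at 0–40 h, 37 C.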

[5] = A CellTox Green Cytotoxicity Assay to monitor cytotoxicity in HEK293 cells - 0 hour (AID 1224869); settings: CellTox Green fluorescence; note: potency is the fitted concentration of half-maximal effect; nearly all actives have a fitted effect of over 50% in size
Method in brief: (§3)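 Cells (HEK293, 600/well) and dye reagent are dispensed together. After 5 h at 37 C, 23 nL compound is pinned in. Plates stay at 37 C for 40 h with fluorescence read at 0h, 8h, 16h, 24h, 32h and 40h.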

[6] = A CellTox Green Cytotoxicity Assay to monitor cytotoxicity in HEK293 cells - 40 hour (AID 1224871); note: nearly all actives have a fitted effect of over 45% in size; note: potency is the fitted concentration of half-maximal effect
Method in brief: as §3

[7] = A CellTox Green Cytotoxicity Assay to monitor cytotoxicity in HEK293 cells - 24 hour (AID 1224875); note: nearly all actives have a fitted effect of over 45% in size; note: potency is the fitted concentration of half-maximal effect; for activity change: % is set by controls: 0 for no effect and ±100 for the full control effect
Method in brief: as §3

[8] = qHTS RealTime-Glo MT Cell Viability Assay in HEK293 cells - 0 hour (AID 1224880); note: nearly all actives have a fitted effect of over 45% in size; note: potency is the fitted concentration of half-maximal effect
Method in brief: as §2

[9] = A CellTox Green Cytotoxicity Assay to monitor cytotoxicity in HEK293 cells - 32 hour (AID 1224881); note: nearly all actives have a fitted effect of over 40% in size; note: potency is the fitted concentration of half-maximal effect
Method in brief: as §3

[10] = A CellTox Green Cytotoxicity Assay to monitor cytotoxicity in HepG2 cells - 16 hour (AID 1224876); note: potency is the fitted concentration of half-maximal effect; nearly all actives have a fitted effect of over 45% in size
Method in brief: (§4)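 Cells and non-lytic dye reagent are dispensed together (600 HepG2 cells/well) and incubated 5 h before DMSO compound transfer. Kinetic fluorescence is then recorded in the same wells during 40 h at 37 C.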

[11] = qHTS RealTime-Glo MT Cell Viability Assay in HepG2 cells - 24 hour (AID 1224867); note: % is set by controls: 0 for no effect and ±100 for the full control effect; nearly all actives have a fitted effect of over 50% in size
Method in brief: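 HepG2 cells were seeded at 600 cells/well together with NanoLuc luciferase and a cell-permeant prosubstrate, preincubated 5 h at 37 C/5% CO2, then pin-dosed with compounds in DMSO. Nonlytic luminescence from viable cells was read at each time point.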

[12] = qHTS assay to identify small molecule agonists of the estrogen related receptor (ERR) signaling pathway from Tox21 library (AID 1224849; calls by dose curve; note: % is set by controls: 0 for no effect and ±100 for the full control effect; nearly all actives have a fitted effect of over 15% in size); settings: ERR reporter cell line, ONE-Glo luciferase, 18 h
Method in brief: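 Cells carrying the ERR reporter were plated and allowed to settle for 6 h, exposed to library compounds for 18 h at 37 C, then lysed with ONE-Glo and luminescence measured.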

[13] = qHTS RealTime-Glo MT Cell Viability Assay in HEK293 cells - 32 hour (AID 1224868)
Method in brief: as §1

[14] = A CellTox Green Cytotoxicity Assay to monitor cytotoxicity in HepG2 cells - 24 hour (AID 1224878)
Method in brief: as §4

[15] = A CellTox Green Cytotoxicity Assay to monitor cytotoxicity in HepG2 cells - 40 hour (AID 1224879); note: nearly all actives have a fitted effect of over 40% in size; note: potency is the fitted concentration of half-maximal effect
Method in brief: as §4

[16] = qHTS assay to identify small molecule antagonists of the estrogen related receptor (ERR) signaling pathway from Tox21 library (AID 1224848)
Method in brief: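 Quantitative high-throughput format: ERR reporter cells (2,000/well) pre-incubated 6 h, treated 18 h at 37 C with compounds in DMSO alongside positive and negative controls, then read by ONE-Glo luminescence.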
Tags give direction and shape of the fitted curve.

CCCCCCCCCCCCCCCC[N+](C)(C)Cc1ccccc1
Potency [1]: active: 117 µM and active: 45.8 µM and active: 49.2 µM
Potency [2]: active: 25.3 µM and active: 28 µM and inconclusive: 3.01 µM [cytotoxic, full curve]
Potency [3]: active: 63.6 µM and active: 39.6 µM and active: 23.9 µM
Potency [4]: active: 4.5 µM and active: 7.9 µM and active: 3.01 µM

NCc1cccc(CN)c1
Potency [5]: inconclusive: 54.9 µM [activator, single point]
Potency [6]: inconclusive: 63.4 µM [activator, partial curve, poor fit] and inconclusive: 61.7 µM [activator, single point]
Potency [7]: inconclusive: 63.4 µM [activator, partial curve, poor fit] and inconclusive: 61.7 µM [activator, single point]
Potency [8]: inactive
Potency [9]: inconclusive: 63.4 µM [activator, partial curve, poor fit] and inconclusive: 61.7 µM [activator, single point]

CCCCCCOC(=O)c1ccc(O)cc1
Potency [1]: active: 89.9 µM and active: 101 µM
Potency [6]: inconclusive: 61.7 µM [activator, single point] and inconclusive: 30.9 µM [activator, partial curve, poor fit]
Potency [2]: active: 43.7 µM and active: 21.9 µM
Potency [3]: inactive
Potency [7]: inconclusive: 55 µM [activator, single point]
Potency [10]: inconclusive: 38.9 µM [activator, partial curve, poor fit]
Potency [9]: inconclusive: 55 µM [activator, single point] and inconclusive: 34.7 µM [activator, partial curve, poor fit]

OCCOCCOCCOCCO
Potency [11]: inactive
Potency [2]: inconclusive: 1.99 µM [rising, single point]
Potency [8]: inconclusive: 1.99 µM [rising, single point]

COc1ccc(OC)c(C(O)CNC(=O)CN)c1 (configuration not stated)
activity change, positive = activation ([12]; at 42.5 µM (top of the series)): inactive: -0.419%
activity change, positive = activation ([12]; at 92.4 µM (top of the series)): inactive: -28%
Potency [7]: inactive

COc1cc([C@@H]2c3cc4c(cc3[C@H](O)[C@H]3COC(=O)[C@H]23)OCO4)cc(OC)c1OC
Potency [13]: active: 48.9 nM and inconclusive: 53.5 nM [cytotoxic, full curve]
Potency [4]: inconclusive: 67.4 nM [cytotoxic, full curve]
Potency [10]: inconclusive: 21.9 µM [activator, single point]
Potency [14]: inconclusive: 21.9 µM [activator, single point]
Potency [15]: inactive and inconclusive: 33.8 nM [activator, partial curve, poor fit]
Potency [9]: inactive

Cc1ccc(O)c(C(C)(C)C)c1
Potency [1]: inconclusive: 113 µM [cytotoxic, partial curve]
Potency [6]: inconclusive: 24.5 µM [activator, partial curve]
Potency [7]: inconclusive: 21.9 µM [activator, full curve, poor fit]
Potency [15]: active: 43.6 µM and active: 34.7 µM
Potency [9]: inconclusive: 24.5 µM [activator, full curve, poor fit]

COc1ccc(OC)cc1
activity change, positive = activation ([12]; at 92.4 µM (top of the series)): inactive: 1.43% and inactive: 7.33%
Potency [6]: inactive
Potency [7]: inactive

O=C(COc1ccc(Cl)cc1)N1CCN(Cc2ccc3c(c2)OCO3)CC1
Potency [13]: active: 43.6 µM and inconclusive: 19 µM [cytotoxic, partial curve]
Potency [2]: active: 38.9 µM
Potency [4]: active: 38.9 µM and inconclusive: 19 µM [cytotoxic, partial curve]

COc1ccc(OC(=O)N(CC(=O)O)Cc2ccc(OCCc3nc(-c4ccccc4)oc3C)cc2)cc1
Potency [16]: inconclusive: 10.6 µM [inhibitor, single point]

CC[C@]1(O)C[C@H]2CN(CCc3c([nH]c4ccccc34)[C@@](C(=O)OC)(c3cc4c(cc3OC)N(C=O)[C@H]3[C@@](O)(C(=O)OC)[C@H](OC(C)=O)[C@]5(CC)C=CCN6CC[C@]43[C@@H]65)C2)C1
Potency [13]: active: 1.3 nM
Potency [15]: inconclusive: 3.4 nM [activator, full curve, poor fit]
